Reference: article PMC4336329 (PLoS ONE, 2015)
In all, about 310,000 compounds went through this assay and about 14,000 (4.5%) showed an effect of 50% or more. Effects have a minus sign here. Some of the results follow.

Molecular target: human ether-à-go-go-related gene (hERG) potassium channel (human, UniProt Q12809)
Assay: primary screen, population patch clamp on CHO cells stably expressing hERG
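Also: peak tail current of the secondary pulse compared with the same well before compound.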

Chain of human ether-à-go-go-related gene (hERG) potassium channel (Q12809 whole entry, looked up): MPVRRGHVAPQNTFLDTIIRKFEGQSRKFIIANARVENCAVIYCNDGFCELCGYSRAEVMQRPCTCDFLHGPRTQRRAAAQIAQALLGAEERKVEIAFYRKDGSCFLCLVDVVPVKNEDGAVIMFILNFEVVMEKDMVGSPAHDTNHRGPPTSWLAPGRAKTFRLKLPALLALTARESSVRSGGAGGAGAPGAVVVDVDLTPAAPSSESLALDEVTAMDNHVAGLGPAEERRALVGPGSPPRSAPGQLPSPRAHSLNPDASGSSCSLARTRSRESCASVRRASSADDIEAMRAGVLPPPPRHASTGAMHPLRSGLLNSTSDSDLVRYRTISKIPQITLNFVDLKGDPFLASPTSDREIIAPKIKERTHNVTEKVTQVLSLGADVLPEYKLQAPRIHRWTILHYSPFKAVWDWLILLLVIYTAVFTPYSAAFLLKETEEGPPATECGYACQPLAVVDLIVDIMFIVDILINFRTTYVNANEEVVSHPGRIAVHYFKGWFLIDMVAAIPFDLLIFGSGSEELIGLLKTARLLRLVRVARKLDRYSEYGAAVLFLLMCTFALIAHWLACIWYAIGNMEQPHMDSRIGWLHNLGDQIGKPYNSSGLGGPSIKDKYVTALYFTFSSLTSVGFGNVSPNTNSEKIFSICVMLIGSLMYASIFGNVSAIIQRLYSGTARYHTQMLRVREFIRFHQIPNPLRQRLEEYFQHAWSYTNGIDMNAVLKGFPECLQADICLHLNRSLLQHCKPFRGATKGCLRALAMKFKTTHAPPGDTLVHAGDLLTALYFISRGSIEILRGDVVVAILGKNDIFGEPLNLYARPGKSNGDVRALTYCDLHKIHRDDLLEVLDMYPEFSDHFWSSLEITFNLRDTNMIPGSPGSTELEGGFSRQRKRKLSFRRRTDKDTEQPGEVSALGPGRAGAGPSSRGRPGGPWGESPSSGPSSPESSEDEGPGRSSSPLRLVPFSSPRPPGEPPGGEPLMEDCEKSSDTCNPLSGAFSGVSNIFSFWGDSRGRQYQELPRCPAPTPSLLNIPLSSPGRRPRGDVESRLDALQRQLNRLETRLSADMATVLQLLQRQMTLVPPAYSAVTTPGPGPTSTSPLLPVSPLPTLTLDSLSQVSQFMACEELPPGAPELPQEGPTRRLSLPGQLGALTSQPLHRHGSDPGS

Compared with `Cc1ccc(C)c(N2CCN(C(c3ccncc3)c3nnnn3Cc3ccccc3)CC2)c1.Cl` (stereo not drawn), `Cc1ccc(C(=O)NC(=S)N2CCN(c3cc(C)ccc3C)CC2)cc1` is higher in “hERG current change (%, negative = inhibition) at 10uM” value: -3.25% for the first, 8.35% for the second.

First: CC(=O)N1CCN(C(=O)c2cc(=O)c3ccccc3o2)CC1
Second: CCOC(=O)N1CCN(C(=O)Nc2ccc(Cl)cc2)CC1
The “hERG current change (%, negative = inhibition) at 10uM” value of the first is higher: 26.2% for the first, -11.4% for the second.

Going from `O=C(Cn1ccccc1=O)c1cccs1` to `O=C(Nc1ccc2c(c1)C(=O)N(c1ccccc1)C2=O)c1cccs1`, the “hERG current change (%, negative = inhibition) at 10uM” value falls from 12.4% to 4.93%.

First: O=C(OCCc1ccccc1)c1cc(O)c(O)c(O)c1
Second: COc1ccc(Cl)cc1C(=O)NCC(=O)OCc1ccccc1
The “hERG current change (%, negative = inhibition) at 10uM” value of the first is higher: 15.2% for the first, -36.4% for the second.

Compared with `Cc1cc2oc(=O)cc(CN3CCN(C/C=C/c4ccccc4)CC3)c2cc1O`, `COc1ccc(NC(=S)N2CCN(C/C=C/c3ccccc3)CC2)cc1` is higher in “hERG current change (%, negative = inhibition) at 10uM” value: -80.9% for the first, -24.1% for the second.

Compared with `O=C(Nc1cccc(Cl)c1)Nc1nc(-c2ccc(Cl)cc2)cs1`, `Cc1cc2cc(CNC(=O)Nc3ccccc3)ccc2n1C` is higher in “hERG current change (%, negative = inhibition) at 10uM” value: -0.913% for the first, 6.94% for the second.

First: Cc1ccc(SCCNC(=S)Nc2cc(C)ccc2C)cc1
Second: Cc1ccc(S(=O)(=O)NCCC(=O)Nc2ccncc2)cc1C
The “hERG current change (%, negative = inhibition) at 10uM” value of the first is higher: 4.34% for the first, -20.1% for the second.

First: CC(=O)NCCn1c(SCC(=O)OCc2ccccc2)nc2ccccc2c1=O
Second: Cn1c(SCC(=O)c2ccccc2)nnc1-c1ccc(O)cc1
The “hERG current change (%, negative = inhibition) at 10uM” value of the first is lower: -60.2% for the first, -11.2% for the second.

Going from `CCCCn1c(SCC(=O)Nc2ccc(OC)cc2)nc2ccc(N3CCOCC3)cc2c1=O` to `CCc1nnc(NC(=O)CSc2nnc(CNc3ccc(OC)cc3)n2CC)s1`, the “hERG current change (%, negative = inhibition) at 10uM” value rises from -6.99% to 13.1%.

First: N#CC1CC(c2ccccc2)=NN1c1ccccc1[N+](=O)[O-] (stereo not drawn)
Second: S=c1[nH]nc(-c2ccccc2)c2ccccc12
The “hERG current change (%, negative = inhibition) at 10uM” value of the first is higher: 12.6% for the first, 1.61% for the second.

Going from `CCc1ccc(OCCOCC(O)CN(CCO)CCO)cc1.Cl` (stereo not drawn) to `CCOc1ccc(NC(=O)CCC(=O)NNC(=O)c2ccc(Br)o2)cc1`, the “hERG current change (%, negative = inhibition) at 10uM” value rises from 0.477% to 4.62%.

Going from `COc1ccc(C(=O)NCc2ccc3c(c2)CCO3)cc1` to `COc1ccc(NC(=O)C2C(=O)N(C)C3(C)CC2c2ccccc2O3)cc1` (stereo not drawn), the “hERG current change (%, negative = inhibition) at 10uM” value falls from 7.15% to -13.5%.

First: Cc1csc(C(=O)O)c1NC(=O)c1c(Cl)cccc1Cl
Second: Cc1cc(C(=O)Nc2ccc3c(c2)OCO3)cs1
The “hERG current change (%, negative = inhibition) at 10uM” value of the first is higher: 6.61% for the first, -6.84% for the second.

Going from `O=C(COC(=O)[C@@H]1CCCN1S(=O)(=O)c1ccccc1F)Nc1ccc(OC(F)F)cc1` to `O=C(COc1ccc(/C=N/NC(=O)C(=O)N2CCCCC2)cc1)Nc1ccccc1Cl`, the “hERG current change (%, negative = inhibition) at 10uM” value rises from -61.7% to 15.9%.

First: C=CCn1c(SCC(=O)c2[nH]c(C)c(C(C)=O)c2C)nnc1-c1ccncc1
Second: CCOC(=O)CNC(=O)CSc1nnc(Cn2c(=O)sc3ccccc32)n1C
The “hERG current change (%, negative = inhibition) at 10uM” value of the first is lower: -6.63% for the first, 9.42% for the second.

First: CCOC(=O)c1nc(C)n(-c2cc(Cl)cc(Cl)c2)n1
Second: CCN(CC)S(=O)(=O)c1ccc(Cl)c(NC(=O)c2cc(Cl)cc(Cl)c2)c1
The “hERG current change (%, negative = inhibition) at 10uM” value of the first is lower: -17.5% for the first, 10.2% for the second.

Compared with `Cl.N=c1n(CCN2CCCCC2)c2ccccc2n1CC(O)c1ccc(Cl)c(Cl)c1` (stereo not drawn), `O=C(CN1CCN(c2ccccn2)CC1)Nc1cccc(Cl)c1Cl` is higher in “hERG current change (%, negative = inhibition) at 10uM” value: -105% for the first, -11.1% for the second.

First: CNc1snc(C)c1C(=O)OCC(=O)N(C)Cc1ccccc1
Second: COc1ccccc1/C=C(/C(=O)OCC(=O)N(C)Cc1ccccc1)c1ccccc1
The “hERG current change (%, negative = inhibition) at 10uM” value of the first is lower: 7.69% for the first, 10.7% for the second.

Compared with `N#CC(C#N)=C1C=CC=CN1/C(=C\c1ccccc1)C(=O)c1cccs1`, `CO/N=C/C(C#N)=C/c1cc(C(=O)c2ccccc2)cn1C` is higher in “hERG current change (%, negative = inhibition) at 10uM” value: 5.13% for the first, 18.4% for the second.

Compared with `Cc1nn(C)cc1/C=N\NC(=O)c1ccc(Cn2cc(Cl)cn2)cc1`, `CCN(CC)c1ccc(/C=N\NC(N)=O)cc1` is lower in “hERG current change (%, negative = inhibition) at 10uM” value: 4.85% for the first, -11.7% for the second.

Going from `Cc1ccccc1CNCc1cccnc1` to `Cc1ccccc1N(CC(=O)NCc1ccncc1)S(C)(=O)=O`, the “hERG current change (%, negative = inhibition) at 10uM” value rises from 3.68% to 34.9%.

Going from `Cn1c(SCC(=O)N2CCOCC2)nnc1-c1ccco1` to `Cn1c(SCC(N)=O)nnc1C1CCN(C(=O)NCc2ccccc2)CC1`, the “hERG current change (%, negative = inhibition) at 10uM” value falls from 17.3% to 11%.

Compared with `CC(C)CCNC(=O)Cc1csc(-c2ccccc2)n1`, `OCc1cn(-c2ccccc2)nn1` is higher in “hERG current change (%, negative = inhibition) at 10uM” value: 14.9% for the first, 19.2% for the second.

First: CCOc1ccc(CCNC(=O)COC(=O)c2cc(OC)cc(OC)c2)cc1OCC
Second: COc1ccc(CCN(C)C(=O)Cn2c(=O)oc3ccccc32)cc1OC
The “hERG current change (%, negative = inhibition) at 10uM” value of the first is higher: 6.44% for the first, -13.3% for the second.

Going from `Cc1cc(C)n2nc(-c3cccnc3)nc2n1` to `Cc1cc(Sc2nnc(N)s2)c2ccccc2n1`, the “hERG current change (%, negative = inhibition) at 10uM” value rises from 9.07% to 10.9%.

First: CCOC(=O)C(C#N)=C1CCN(Cc2ccccc2)CC1
Second: NC(=O)c1ccccc1N/C=C1\CCCCC1=O
The “hERG current change (%, negative = inhibition) at 10uM” value of the first is higher: 22% for the first, 3.06% for the second.

Going from `COc1ccc(Cc2nnc(NC(=O)Cc3cccs3)s2)cc1OC` to `COc1ccc(CC(=O)N2CCN(c3cccc(Cl)c3)CC2)cc1OC`, the “hERG current change (%, negative = inhibition) at 10uM” value falls from 16.2% to -7.38%.

First: Cc1ccc(CNC(=O)CCS(=O)(=O)c2cc(Br)cc3c2N(C(=O)C2CC2)CC3)o1
Second: CSc1ccc(S(=O)(=O)NCC(=O)OCC(=O)N2CCCCC2C)cc1[N+](=O)[O-] (stereo not drawn)
The “hERG current change (%, negative = inhibition) at 10uM” value of the first is lower: -16.7% for the first, 4.74% for the second.

Compared with `O=C1/C(=C/c2ccc([N+](=O)[O-])cc2)CCC1C1CCCC1` (stereo not drawn), `O=C1CCCCN1CC(=O)N1CCCC(N2CCN(c3ccccc3F)CC2)C1` (stereo not drawn) is lower in “hERG current change (%, negative = inhibition) at 10uM” value: 12.5% for the first, 3.7% for the second.

First: O=C(NC1CCCCCC1)C1CCCN(c2ncccn2)C1 (stereo not drawn)
Second: Cc1n[nH]c(=O)c2c(NC(=O)CSc3ncccn3)oc(C)c12
The “hERG current change (%, negative = inhibition) at 10uM” value of the first is lower: 3.96% for the first, 7.18% for the second.

Compared with `CCOC(=O)C1=C(c2ccccc2)NC(=O)NC1c1cc(OC)c(OC)cc1OC` (stereo not drawn), `COc1ccc(N=C2NC(=O)/C(=C/c3ccc(O)c(OC)c3)S2)cc1` is lower in “hERG current change (%, negative = inhibition) at 10uM” value: 7.29% for the first, 7.28% for the second.

Going from `CC(C)c1ccc(C2N3CCCN23)cc1` (stereo not drawn) to `Cc1ccc(SCC(=O)N2CC(C)OC(C)C2)cc1` (stereo not drawn), the “hERG current change (%, negative = inhibition) at 10uM” value rises from 3.32% to 6.92%.

First: Cc1ccc(C)c(OCC(=O)NCCN(C)C)c1.Cl
Second: CC(=O)c1sc(NC(=O)COc2ccc(C(C)C)c(C)c2)nc1C
The “hERG current change (%, negative = inhibition) at 10uM” value of the first is higher: 15% for the first, 10.9% for the second.

Going from `O=C(O)CC1S/C(=N\N=C2\C(=O)Nc3ccccc32)N(c2ccc(O)cc2)C1=O` (stereo not drawn) to `NC(=O)CSC1=Nc2ccccc2C2=NC(CC(=O)NCc3cccs3)C(=O)N12` (stereo not drawn), the “hERG current change (%, negative = inhibition) at 10uM” value rises from -53.7% to 11.2%.

Going from `CN1C(=O)N(CC(=O)N2CCN(S(=O)(=O)/C=C/c3ccccc3)CC2)C(=O)C12CCCCC2` to `Cn1nc(-c2ccc(OCC(=O)N3CCN(Cc4ccccc4)CC3)cc2)c2ccccc2c1=O`, the “hERG current change (%, negative = inhibition) at 10uM” value falls from -9.37% to -44.4%.

Compared with `CC[C@@]12C(=O)N(c3ccc(C)cc3)C(=O)N1[C@H](c1ccc(Br)cc1)[C@@H]1C(=O)N(C(C)(C)C)C(=O)[C@@H]12`, `C/C(=C\c1ccc(Cl)cc1)C(=O)c1c(C)cc(C)[nH]c1=O` is higher in “hERG current change (%, negative = inhibition) at 10uM” value: -8.14% for the first, 9.59% for the second.

Compared with `COC(=O)c1c(NC(=O)Cc2cccs2)sc2c1CCCC2`, `CCOc1ccc(C2C(C#N)=C(N)N(c3sc4c(c3C#N)CCCC4)C3=C2C(=O)CCC3)cc1` (stereo not drawn) is lower in “hERG current change (%, negative = inhibition) at 10uM” value: 2.72% for the first, -4.76% for the second.

Compared with `OCCSc1nnc(Nc2ccccc2)s1`, `CC/C(=N\Nc1ccccc1)c1c(O)[nH]c(=O)[nH]c1=O` is higher in “hERG current change (%, negative = inhibition) at 10uM” value: 4.74% for the first, 24.2% for the second.

Compared with `Cc1ccc2cc3cc(C(=O)NCc4ccco4)oc3nc2c1`, `Cc1ccc(-c2nn(-c3ccccc3)cc2C(N)=O)o1` is lower in “hERG current change (%, negative = inhibition) at 10uM” value: -1.21% for the first, -13.1% for the second.

Going from `CCOc1ccc(-c2cc(C)[n+](CCO)c(-c3ccc(OCC)cc3)c2)cc1.[O-][Cl+3]([O-])([O-])[O-]` to `CCCCc1ccc(NC(=O)COc2ccc(C(=O)Nc3ccccc3OC)cc2)cc1`, the “hERG current change (%, negative = inhibition) at 10uM” value rises from -62.6% to 12.6%.

Compared with `O=C(Nc1c(-c2ccccc2)nc2ccccn12)c1ccccc1F`, `CC1Cc2ccccc2N1C(=O)CCn1cccn1` (stereo not drawn) is higher in “hERG current change (%, negative = inhibition) at 10uM” value: -3.02% for the first, -1.73% for the second.

Going from `O=C(Nc1ccc(F)c(Cl)c1)NC1CC1` to `Cn1c(SCC(=O)Nc2ccccc2C(F)(F)F)nc2c(c1=O)SCC2`, the “hERG current change (%, negative = inhibition) at 10uM” value falls from 13.7% to -57%.

Compared with `COc1ccc(OC)c2[nH]c(=O)c(CCNC(C)=O)cc12`, `COC(=O)c1ccc(OC)c(CSc2nnc(COc3cccc(C)c3)o2)c1` is lower in “hERG current change (%, negative = inhibition) at 10uM” value: 3.58% for the first, -11% for the second.

Compared with `C=CCn1c(=O)c(C=Nc2cccc([N+](=O)[O-])c2)c(O)n(CCCC)c1=O`, `COCc1c(C(=O)OCC(=O)c2c(N)n(CC(C)C)c(=O)n(C)c2=O)oc2ccccc12` is higher in “hERG current change (%, negative = inhibition) at 10uM” value: -55% for the first, -11.1% for the second.

Going from `Cc1ccc(O)c(C2=NOC(O)(C(F)(F)C(F)F)C2)c1` (stereo not drawn) to `CCN(CC)S(=O)(=O)c1cccc(NC(=O)COc2ccc(C#N)cc2OC)c1`, the “hERG current change (%, negative = inhibition) at 10uM” value falls from -8.38% to -72.4%.
